Measurements from PubChem BioAssay AID1345083 (National Center for Advancing Translational Sciences (NCATS), 2018).
The campaign covered roughly 94,000 compounds. About 6,200 (6.6%) were called active. This list was built around the results that the source calls inconclusive (neither active nor inactive); the mix of calls is not that of the screen. Calls come from the whole dose curve; as a rule, active = well fitted inhibition curve with a large enough effect; inconclusive = small, poorly fitted or top-dose-only effect; inactive = flat fitted curve, though single readings scatter. A potency beside an inconclusive call is a rough fit, not a confirmed value.

Assay: Cytotoxic Profiling in HEK 293 Cell Line of Diverse Libraries Using Quantitative High-Throughput Screening; note: nearly all actives have a fitted effect of over 60% in size
Details: HEK 293 viability, ATP luminescence (CellTiter-Glo), 48-72 h; series mostly up to 115 µM
In short: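 Viability of HEK 293 cells, plated at 250 cells/well, was judged by cellular ATP after compound treatment for 48 or 72 hr. Luminescence was imaged 10 min after CellTiter-Glo addition at room temperature.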
Potency is the fitted concentration of half-maximal effect; tags give direction and shape of the fitted curve.

Structure (SMILES) | Potency
CCCCc1ccc(NC(=O)Cn2c(C)cc3nc4n(c(=O)c32)CCCCC4)cc1 | inconclusive: 56.2 µM [inhibitor, partial curve, poor fit]
CCN1C(=O)C(CC(=O)NC(C)c2ccccc2)Sc2ncccc21 (centres undefined) | inconclusive: 3.55 µM [inhibitor, full curve, poor fit]
CCCCNC(=O)N1CC(C(=O)NC(C)c2ccccc2)CC(c2ccc(OC)c(OC)c2)C1 (centres undefined) | inconclusive: 100 µM [inhibitor, single point]
O=C(NCc1ccccc1Cl)c1csc(N2CCN(c3ccc(F)cc3)CC2)n1 | inconclusive: 17.8 µM [inhibitor, full curve, poor fit]
COc1ccc(CCNC(=O)c2cc3c(N4CCSCC4)nc(C)cn3n2)cc1OC | inconclusive: 50.1 µM [inhibitor, partial curve, poor fit]
CC(C)CCN1CCC2(CC1)NCc1ccccc1NC2=O | inactive
Cc1ccccc1S(=O)(=O)N1CCCC(CCC(=O)N2CCc3ccccc3C2)C1 (centres undefined) | inconclusive: 39.8 µM [inhibitor, full curve, poor fit]
CN(Cc1ccccc1)Cc1cc(C[C@H]2CNCC[C@H]2CC(=O)NC2CCCCC2)no1 | inconclusive: 44.7 µM [inhibitor, partial curve, poor fit]
CNC(=O)c1cccc2c1CCN2C(=O)Nc1ccc(C)cc1 | inactive
CC1(COc2ccccc2)COc2ccc(C(=O)NC3CCC(O)CC3)cc2N1 (centres undefined) | inconclusive: 100 µM [inhibitor, partial curve, poor fit]
c1ccc(-c2ccc(CN[C@H]3CO[C@H]4[C@@H]3OC[C@@H]4n3cc(CC4CCCCC4)nn3)cc2)cc1 | inconclusive: 28.2 µM [inhibitor, full curve]
CC(=O)N1CCC(NC[C@@H]2C=C(C)[C@H](Cc3nc4ccccc4[nH]3)C[C@H]2C(C)C)CC1 | active: 89.1 µM
CN1C(=O)c2cccn2CC1CNS(=O)(=O)c1ccccc1 (centres undefined) | inconclusive: 89.1 µM [inhibitor, single point]
O=C1NCCCCCCN(C(=O)CC2CCCCC2)[C@H]2C[C@H](c3nc(Cc4ccccc4)no3)C[C@@H]12 | inconclusive: 44.7 µM [inhibitor, partial curve, poor fit]
COc1ccc(-c2noc(-c3ncn4c3COC(c3ccc(F)cc3)C4)n2)c(OC)c1 (centres undefined) | active: 35.5 µM
Cc1c(C(C)NC(=O)C(=O)c2ccco2)cnn1-c1cccc2ccccc12 (centres undefined) | active: 44.7 µM
Cn1nc(C2CCN(C(=O)C3CCCO3)CC2)c2c1CCOC2 (centres undefined) | inactive
COCc1noc([C@@H]2CN(C(=O)c3cccc(C)c3)C[C@H]2COC)n1 | inactive
CNC(=O)c1cnc2c(c1)N(Cc1ccccc1)CCC2 | inactive
O=C(CN1CCCCCC1)N1CCC2(CC1)CN(Cc1ccccc1)CC2CO (centres undefined) | inconclusive: 89.1 µM [inhibitor, single point]
C[C@H]1[C@@H]2[C@@H](O)C([C@H](C)C(=O)NCc3ccccn3)CC[C@@]2(C)CC[C@@H]1NC(=O)c1ccccc1 (some centres undefined) | inactive
COc1cccc(N2C(=O)NC(=NC3CCCC3)C23CCN(Cc2ccc(N(C)C)cc2)C3)c1 (centres undefined) | inconclusive: 89.1 µM [inhibitor, single point]

Structure (SMILES) | Potency
Cc1cc(=O)n(CC(=O)Nc2ccc(N(C)C)cc2)c(-c2ccccc2)n1 | inconclusive: 12.6 µM [inhibitor, full curve, poor fit]
COc1ccccc1Nc1ccnc(N2CCCC2C(=O)NCC2CC2)n1 (centres undefined) | inconclusive: 50.1 µM [inhibitor, partial curve, poor fit]
Cc1cc(C(=O)N2C[C@@H](CO)[C@H](c3ccccn3)C2)n(C)n1 | inactive
COc1ccccc1-c1[nH]nc2ncc(C(=O)NCCc3ccccn3)nc12 | active: 63.1 µM
COCCNc1nc(-c2c(C)noc2C)cc2cc(C(C)C)oc12 | active: 70.8 µM
CC#CCn1cc2c3c(cccc31)[C@H](CC(C)C)N[C@H](C(=O)OC)C2 | inconclusive: 112 µM [inhibitor, partial curve, poor fit]
COc1cccc(CN2CCCC3(CCN(c4nc5ccccc5o4)C3)C2=O)c1 (centres undefined) | inconclusive: 56.2 µM [inhibitor, partial curve, poor fit]
O=C1CN(C(=O)CCC(=O)N2CCC(CCOc3ccc(F)cc3)C2)c2ccccc2N1 (centres undefined) | inconclusive: 50.1 µM [inhibitor, partial curve, poor fit]
c1ccc([C@@H]2CNC[C@H]2COc2ccncc2)nc1 | inactive
Cc1ccc(CNC(=O)[C@@]23CCCC[C@H]2N(C)C(=O)CC3)cc1 | inactive
Cc1ccc(-n2cc(CN3CCN(C)C(CCO)C3)cn2)cc1 (centres undefined) | inactive
CNC(=O)C1(N2CCC[C@H]2C(=O)NCc2ccccc2)CCCCC1 | inactive
CCC(C)NC(=O)C1COC2(CCN(C(=O)C3CCC3)CC2)N1C(=O)c1ccc(OC)cc1 (centres undefined) | inconclusive: 39.8 µM [inhibitor, partial curve, poor fit]
Cc1ccccc1CN1CCOc2cc([S+](N)(=O)[O-])ccc2C1 | inconclusive: 100 µM [inhibitor, partial curve]
CC(C)Oc1ccc(C(=O)NC2CCN(c3cnn(CC4CC4)c(=O)c3)CC2)cc1 | inconclusive: 35.5 µM [inhibitor, partial curve, poor fit]
Cc1cc(=O)n(CC(=O)Nc2ccc(C)c(Cl)c2)c(N2CCc3ccccc3C2)n1 | inconclusive: 25.1 µM [inhibitor, partial curve, poor fit]
Cc1ccc(CC(=O)N2CCN(c3cc(-c4cccs4)[nH]n3)CC2)cc1 | inconclusive: 50.1 µM [inhibitor, partial curve, poor fit]
O=[S+]([O-])(c1ccccc1)N1CCNc2cnc(Nc3cccc(F)c3)nc2C1 | active: 89.1 µM
COc1ccc(C(=O)N[C@@H]2CCC[C@@H]2C(=O)N2CCC(Cc3ccccc3)CC2)cc1 | inconclusive: 56.2 µM [inhibitor, partial curve, poor fit]
O=C(CC1CCOC2(CCN(S(=O)(=O)Cc3ccccc3)CC2)C1)N1CCCC1 (centres undefined) | inactive
CC1(CNc2ccccc2)COc2ccc(C(=O)NCCN3CCOCC3)cc2N1 (centres undefined) | inconclusive: 100 µM [inhibitor, partial curve, poor fit]
COC[C@H]1CCCN1Cc1nc(C2(O)CCN(Cc3ccc(OC)cc3)CC2)cs1 | inconclusive: 89.1 µM [inhibitor, partial curve]

Structure (SMILES) | Potency
Cc1c(-c2ccccc2F)[nH]c2ccc(CNC(=O)CN3CC(=O)NC3=O)cc12 | inconclusive: 100 µM [inhibitor, single point]
CCNC(=O)C12CCCC=C1N(C1CCCC1)C(=O)CC2 (centres undefined) | inactive
CN(C)[S+](=O)([O-])c1ccc2c(c1)OCCN(CCc1ccccc1)C2 | inconclusive: 39.8 µM [inhibitor, partial curve, poor fit]
COc1ccc(CC(=O)Nc2ccc([C@@H](O)[C@H]3COCC(=O)N3Cc3ccc(C(F)(F)F)cc3)cc2)cc1 | active: 31.6 µM
O=C(c1ccc(F)cc1F)N1CCN(c2cc(-c3cccs3)[nH]n2)CC1 | inconclusive: 44.7 µM [inhibitor, partial curve, poor fit]
COc1cccc(CN2CCC3(C2)NC(=O)c2ccccc2O3)c1 (centres undefined) | inconclusive: 89.1 µM [inhibitor, partial curve]
Cc1cccc(OCC(=O)c2ccc3c(c2)N(C(C)C(=O)N2CCCC2)C(=O)CO3)c1C (centres undefined) | active: 44.7 µM
Cn1cnc2ccc(-c3ccncc3)nc2c1=O | inconclusive: 126 µM [inhibitor, partial curve]
N#Cc1ccc(S(=O)(=O)N2CCC3(CC2)CC2C(=O)NCCN2C3)cc1 (centres undefined) | inactive
O=C(CC(c1ccccc1)c1ccc2c(c1)OCO2)N1CCCCCC1 (centres undefined) | inconclusive: 50.1 µM [inhibitor, partial curve, poor fit]
COc1ccccc1Nc1ccnc(N2CCC(NC(=O)Cc3ccccn3)CC2)n1 | inconclusive: 50.1 µM [inhibitor, partial curve, poor fit]
Cc1cn2nc(-c3nc(C4CCCN(C(=O)c5ccc(C)c(F)c5)C4)no3)cc2c(=O)[nH]1 (centres undefined) | inactive
COc1ccc(/C=C/CN2CCN(Cc3ccccc3)CC(O)C2)cc1 (centres undefined) | inconclusive: 89.1 µM [inhibitor, single point]
O=C(NCc1ccccc1Cl)C1CCCN1Cc1ccc(-c2cncnc2)cc1 (centres undefined) | inconclusive: 79.4 µM [inhibitor, partial curve]
CCc1nc(-c2ccc(OC3CCN(Cc4cccc(F)c4)C3)cc2)no1 (centres undefined) | inconclusive: 39.8 µM [inhibitor, partial curve, poor fit]
CN(C)c1cccc(C(=O)N2CCN(C(=O)c3nnn4c3COC(c3ccccc3)C4)CC2)c1 (centres undefined) | inconclusive: 50.1 µM [inhibitor, partial curve, poor fit]
Cc1ccc(-c2nccn3cc(C(=O)O)nc23)cc1 | inactive
COc1ccc(-c2cc3c(=O)n(CCNC(=O)c4c(F)cccc4F)ccn3n2)cc1 | inactive
CCOC(=O)[C@H]1CN(C(=O)c2cc3ccccc3oc2=O)[C@]2(C)C(=O)N(CC3CC3)c3ccccc3[C@H]12 | inconclusive: 56.2 µM [inhibitor, partial curve, poor fit]
COc1cc(-c2[nH]ncc2CN(CCO)Cc2cccs2)cc(OC)c1OC | inconclusive: 50.1 µM [inhibitor, partial curve, poor fit]
